Reference: PubChem BioAssay AID1030 (National Center for Advancing Translational Sciences (NCATS), 2008)
Values joined by “and” are separate entries in the source; they are usually repeats but may differ in a detail not shown here. Identical values can stand only once. About 16,000 (7.3%) of roughly 220,000 compounds were called active. Inconclusive means that the source gave no clear call. Such entries were picked first, then a sample of the others. Calls follow the shape of the dose curve; as a rule, active = well fitted inhibition curve with a large enough effect (not every such curve was filed as active); inconclusive = small, poorly fitted or top-dose-only effect, or another doubt; inactive = no such curve, though single readings can be large or run the other way. Potencies of inconclusive entries are doubtful fits and often do not repeat.

Target: Aldehyde dehydrogenase 1A1 (Homo sapiens) (UniProt P00352)
Sequence of UniProt P00352 (P00352 whole entry, looked up): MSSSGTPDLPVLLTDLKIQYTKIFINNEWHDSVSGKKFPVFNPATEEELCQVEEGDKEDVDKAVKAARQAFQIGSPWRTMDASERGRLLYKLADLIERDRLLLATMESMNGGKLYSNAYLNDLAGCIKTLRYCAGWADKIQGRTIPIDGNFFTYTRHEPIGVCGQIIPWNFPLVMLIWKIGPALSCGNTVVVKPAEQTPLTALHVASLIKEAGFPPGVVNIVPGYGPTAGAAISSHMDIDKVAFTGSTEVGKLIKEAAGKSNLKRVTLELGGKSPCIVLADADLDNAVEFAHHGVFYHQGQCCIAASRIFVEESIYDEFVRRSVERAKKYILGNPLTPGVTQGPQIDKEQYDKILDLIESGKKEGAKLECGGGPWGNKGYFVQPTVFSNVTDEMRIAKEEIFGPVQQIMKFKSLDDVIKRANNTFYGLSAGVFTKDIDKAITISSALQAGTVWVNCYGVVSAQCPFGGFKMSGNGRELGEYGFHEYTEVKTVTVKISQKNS
Assay: qHTS Assay for Inhibitors of Aldehyde Dehydrogenase 1 (ALDH1A1);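 as to activity, negative = inhibition: plate controls were no enzyme wells and a reference inhibitor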
Details: Purified ALDH1A1, NADH fluorescence, propionaldehyde substrate; series mostly up to 75.3 µM
Potency is read from the fitted curve at half-maximal effect; tags tell the direction and shape of the fitted curve.

SMILES | Potency | activity, negative = inhibition
Cc1nonc1C(=O)N/N=C/c1ccc(O)c(O)c1 | inactive | 
Cc1ccc(CN2CCSCC2)c(C)c1 | inactive | 
CO | inactive | 
O=C(CSCc1ccccc1Cl)N1CCN(c2ccccn2)CC1 | inconclusive: 29.9 µM [inhibitor, partial curve, poor fit] | 
COc1ccc(-c2csc(NNC3=NCCCCC3)n2)cc1 | active: 12.6 µM | 
CC(=O)Nc1ccc(NC(=O)COC(=O)CCc2nc3ccccc3s2)cc1 | inconclusive: 0.708 µM [inhibitor, single point] | 
COC(=O)Cn1c(CN2CCC(Cc3ccccc3)CC2)nc2c1c(=O)n(C)c(=O)n2C | inconclusive: 28.2 µM [inhibitor, partial curve] | 
CCN(CC)C(=O)CN1C(=O)c2cccc3cccc(c23)C1=O | inconclusive: 28.2 µM [inhibitor, single point] | 
COCOc1cc(OC)ccc1C(=O)/C=C\c1ccc2c(c1)OCO2 |  | inactive: -17% [at 13.5 µM]
CCCNc1nc2c(c(=O)[nH]c(=O)n2C)n1CCCc1ccccc1 | inactive | 
O=C(O)/C=C\c1ccc(Cn2ccnc2)cc1 | inactive | 
COc1ccc(C(=O)NCC(=O)NCC(=O)OCC(=O)C(C)(C)C)cc1 | inconclusive: 20 µM [inhibitor, single point] | 
COCCNc1cc(C)nc2c3c(C)cc(C)nc3nn12 | inconclusive: 28.2 µM [inhibitor, partial curve] | 
CC1=C(C(=O)N2CCCC(C(=O)c3cccc4ccccc34)C2)OCCO1 (configuration not stated) | inconclusive: 8.91 µM [inhibitor, full curve, poor fit] | 
O=C(NNC(=O)C1CCCCC1)c1ccc(Br)cc1 | inactive | 
CCCn1c(N2CCN(CC(=O)c3c[nH]c4ccccc34)CC2)nc2c1c(=O)[nH]c(=O)n2C | active: 12.6 µM | 
CCOc1ccc(C(F)(F)F)cc1NC(=O)c1ccc(OC)c([N+](=O)[O-])c1 | inconclusive: 20 µM [inhibitor, partial curve] | 
CC(C)CNC(=S)NNC(=O)c1csc2c1CCC(C)C2 (configuration not stated) | inactive | 
COCCCNC(=O)CNC(=O)c1cn(-c2ccccc2OC)c(=O)c2ccccc12 | inactive | 
CS(=O)(=O)N1CCCC(C(=O)NCc2ccccn2)C1 (configuration not stated) | inactive | 
Cc1cccc(Br)c1 | inconclusive: 39.8 µM [inhibitor, single point] | 
CN(C)c1ccc(C(=O)C(O)c2ccc(C(C)(C)C)cc2)cc1 (configuration not stated) | inconclusive: 25.1 µM [inhibitor, single point] | 
O=C1CN(C(=O)c2ccc(Br)o2)C(c2ccccc2)c2cc(Cl)ccc2N1 (configuration not stated) | inactive | 
CN1CCN(c2ncc3ncc(=O)n(C[C@H]4CCCO4)c3n2)CC1 | inconclusive: 12.6 µM [inhibitor, partial curve] | 

SMILES | Potency | activity, negative = inhibition
CC(C)NC(=O)c1cnn2c1NC(c1cccs1)CC2C(F)(F)F (configuration not stated) | inactive | 
O=C(OCC(=O)N1CCCC1)c1ccccc1OCc1ccccc1 | inactive | 
O=C(Cn1ncn2c(cc3ccccc32)c1=O)NCCC1=CCCCC1 | inconclusive: 28.2 µM [inhibitor, partial curve] | 
COc1cc(CN(C)C(C)C(=O)Nc2ccc([N+](=O)[O-])cc2Cl)ccc1OC(F)F (configuration not stated) | inconclusive: 28.2 µM [inhibitor, single point] | 
O=c1[nH]c(CSc2ccccn2)nc2c1oc1ccccc12 | inconclusive: 1.78 µM [inhibitor, full curve] | 
O=C(O)c1[nH]c2ccccc2c1NS(=O)(=O)Cc1ccccc1 | inconclusive: 31.6 µM [inhibitor, single point] | 
CSCCC(NS(=O)(=O)c1ccc(Cl)cc1)C(=O)OCC(=O)N1CCCc2ccccc21 (configuration not stated) | inconclusive: 28.2 µM [inhibitor, single point] | 
Fc1ccccc1COc1ccccc1CNCc1ccncc1 | inactive | 
CCC1(C)CC(CCNS(=O)(=O)c2ccc(C)cc2)(c2ccc(C)cc2)CCO1 (configuration not stated) | inconclusive: 39.8 µM [inhibitor, single point] | 
CCOC(=O)c1sc(N(Cc2ccccc2)C(=O)CSc2nnc(C3CC3)n2N)nc1C | inactive | 
COc1cccc(CN(C)c2nc(-c3cccs3)nc3ccccc23)c1 | inconclusive: 35.5 µM [inhibitor, partial curve] | 
CCOC(=O)c1nn(-c2ccc(Cl)cc2)c2nc(-c3ccc(C)cc3)c(C#N)c(=O)n12 | inconclusive: 22.4 µM [inhibitor, partial curve] | 
O=C1C2=CC[C@H]3C(=O)N(C[C@@H]4CCCO4)C(=O)[C@@H]3[C@@H]2[C@H](O)[C@@H]2O[C@H]12 | inconclusive: 3.16 µM [inhibitor, partial curve, poor fit] | 
COc1cccc2[nH]c(-c3ccccn3)nc12 | inconclusive: 3.55 µM [inhibitor, single point] | 
Cc1cc(NC(=O)CSc2ncnc3sc(C)c(C)c23)no1 | inactive | 
Fc1ccccc1Cn1nnc2c(NCCc3ccccn3)ncnc21 | active: 7.94 µM | 
Cc1ccoc1C(=O)NCCCNC(=O)c1occc1C | inconclusive: 39.8 µM [inhibitor, single point] | 
CCOC(=O)c1ccc(NC(=O)CC2C(=O)N(c3ccccc3)C(=O)N2CCCOC)cc1 (configuration not stated) | inconclusive: 25.1 µM [inhibitor, single point] | 
COc1ccc(NC(=O)/C=C/c2c(Cl)nc3ccccn23)cc1 | inconclusive: 39.8 µM [inhibitor, single point] | 
CSc1nc(N)nc(SCC(=O)c2ccc(C)cc2)c1C#N | inactive | 
O=C(CSc1nc(SCC(=O)NCc2ccccc2)n(-c2ccccc2)n1)NCc1ccccc1 | inconclusive: 39.8 µM [inhibitor, single point] | 
CC[C@H](C)[C@@H](NC(=O)O[C@@H]1C(=O)c2cc(OC)ccc2O[C@H]1c1ccc(OC)c(Br)c1)C(=O)OC | inconclusive: 35.5 µM [inhibitor, single point] and inconclusive: 35.5 µM [inhibitor, partial curve] | 
CCOC(=O)/C(=N/Nc1ccc(Cl)cc1)S(=O)(=O)c1ccccc1 | inconclusive: 31.6 µM [inhibitor, single point] | 
Cc1nn(C(C)C(=O)O)c(=O)c2c1sc1ccccc12 (configuration not stated) | inconclusive: 22.4 µM [inhibitor, partial curve] | 

SMILES | Potency | activity, negative = inhibition
Cc1cc(C(=O)CSc2nc3ccccc3[nH]2)c(C)n1C | inconclusive: 37.7 µM [inhibitor, single point] | 
CCCNS(=O)(=O)c1ccc(OCC(=O)OC)cc1 | inconclusive: 35.5 µM [inhibitor, single point] | 
COCCCNC(=O)CCC(=O)Nc1ccc2nc(N3CCOCC3)cc(C)c2c1 | inconclusive: 25.1 µM [inhibitor, partial curve] | 
O=C(CSc1ccc(Cl)cc1)N/N=C/c1cccnc1 | inactive | 
CSc1nc(N)nc(SCC(=O)Nc2cccc(F)c2)c1C#N | inactive | 
COc1ccc(NC(=O)CSc2nnnn2C2CCCC2)cc1 | active: 2.51 µM | 
N#Cc1ccc(CN2CCC3(CC2)CCN(C(=O)c2cc(C(F)(F)F)cc(C(F)(F)F)c2)CC3)cc1 | inactive | 
CCSCc1nnc(SCC(=O)c2ccc(OC)cc2)n1C | inconclusive: 39.8 µM [inhibitor, single point] | 
CCOC(=O)c1oc2ccc3c(c2c1C)C(=O)CC1(CCN(C(=O)OCC)CC1)O3 | inconclusive: 0.891 µM [inhibitor, partial curve] | 
CCCC(=O)NC(=S)Nc1cccc(NC(=O)c2ccccc2)c1 | inconclusive: 28.2 µM [inhibitor, single point] | 
NC(=O)COc1ccc(=O)n(-c2ccccc2)n1 | inconclusive: 31.6 µM [inhibitor, single point] | 
O=c1c2c(nc3cc(-c4ccccc4)[nH]n13)CCS2 | inconclusive: 31.6 µM [inhibitor, single point] | 
Cc1ccc2[nH]c(=O)c(CN(C(=O)c3cccs3)c3ccccc3)cc2c1 | inactive | 
COc1ccc(-c2cc(C(=O)Nc3nc4c(C)cccc4s3)c3ccccc3n2)cc1OC | inconclusive: 39.8 µM [inhibitor, single point] | 
CS(=O)(=O)Nc1ccc(C(=O)NCCSCc2ccco2)cc1 | inconclusive: 28.2 µM [inhibitor, single point] | 
CC(C)c1ccc(Nc2cnn(C34CC5CC(CC(CC(=O)O)(C5)C3)C4)c(=O)c2Cl)cc1 | inconclusive: 17.8 µM [inhibitor, partial curve] | 
Cc1ccc(Cn2c(/C=C/c3ccco3)nc3ccccc32)cc1 | inconclusive: 14.1 µM [inhibitor, partial curve] | 
O=C1NN(c2ccc(Cl)c(Cl)c2)C(=O)/C1=C/c1cccc(OC(=O)c2cccs2)c1 | inconclusive: 39.8 µM [inhibitor, single point] | 
CC(=O)O[C@@H]1CC(C)=C2[C@H]1[C@H](C)CC[C@H]2/C=C(\C)C(=O)O | inactive | 
CCOC(=O)c1c(NC(=O)COC(=O)c2ccccn2)sc2c1CCC2 | inconclusive: 22.4 µM [inhibitor, partial curve] | 
COc1ccc(N=C(NN)c2ccc3ccccc3n2)cc1 | inconclusive: 39.8 µM [inhibitor, single point] | 
Cc1ccc(NC(=O)COC(=O)CCC(=O)c2ccc(C(C)(C)C)cc2)c([N+](=O)[O-])c1 | active: 0.501 µM | 
CCN(C#N)c1nc(NC(C)C)nc(NC(C)(C)C)n1 | inactive | 
CCc1ccc(NSc2ccccc2[N+](=O)[O-])cc1 | inconclusive: 25.1 µM [inhibitor, partial curve] | 
